Experimental data taken from patent US20110178024A1 (BEN GURION UNIVERSITY OF THE NEGEV RESEARCH AND DEVELOPMENT …, published 2011).

Tests used:
HLA-DR4 (DRB1*0401) = HLA-DR4 (DRB1*0401) (human); test: cell-based or functional assay
HLA-DR15 (DRB1*1501) = HLA-DR15 (DRB1*1501) (human); test: cell-based or functional assay

B1: Aβ[…] peptide (peptide)
peptide: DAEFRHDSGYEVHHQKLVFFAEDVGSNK
With B1 the “T-cell proliferation of splenocytes of Aβ-immunized DR4 mice, SI at 10 µg/ml” value (HLA-DR4 (DRB1*0401)) was 1.2 SI and the “T-cell proliferation of splenocytes of Aβ-immunized DR15 mice, SI at 10 µg/ml” value (HLA-DR15 (DRB1*1501)) was 4.5 SI.
